Experimental data published in the supplement of paper PMC4604168 (melanoma cell lines).
The list shows a part of the results. Many values rest on one well or one pass, so single values are uncertain.

system: WM1745; assay: cell count relative to DMSO control; melanoma cells; higher = more viable cells; details: library dose: low library concentration; 72 h; first compound 0.4 µM
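Further: cell number obtained by counting DAPI-stained nuclei in high-throughput microscope images with image analysis software, screen run in 1,536-well plates.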

Structure (SMILES)	cell count
C[C@@H](N)c1ccc(C(=O)Nc2ccnc3[nH]ccc23)cc1 + Nc1nc(F)nc2c1ncn2[C@@H]1O[C@H](CO)[C@@H](O)[C@@H]1O [fludarabine] (partner dose 0.2 µM)	81%
C[C@@H](N)c1ccc(C(=O)Nc2ccnc3[nH]ccc23)cc1 + Clc1ccc(Nc2nnc(Cc3ccncc3)c3ccccc23)cc1 [vatalanib] (partner dose 2 µM)	79.6%
C[C@@H](N)c1ccc(C(=O)Nc2ccnc3[nH]ccc23)cc1 + O=C(O)C(=O)Nc1sc2c(c1C(=O)O)CCNC2 [TCS401] (partner dose 1.66667 µM)	77.9%
Cn1sc(=O)n(Cc2ccccc2)c1=O + CO[C@H]1C[C@@H]2CC[C@@H](C)[C@@](O)(O2)C(=O)C(=O)N2CCCC[C@H]2C(=O)O[C@H]([C@H](C)C[C@@H]2CC[C@@H](OCCO)[C@H](OC)C2)CC(=O)[C@H](C)/C=C(\C)[C@@H](O)[C@@H](OC)C(=O)[C@H](C)C[C@H](C)/C=C/C=C/C=C/1C [everolimus] (partner dose 0.02 µM)	88.9%
CCCCCCCCCCCCCCCCCCOP(=O)([O-])OC1CC[N+](C)(C)CC1 [Perifosine] + Cc1cc(N2CCOCC2)cc2[nH]c(-c3c(NC[C@@H](O)c4cccc(Cl)c4)cc[nH]c3=O)nc12 [BMS536924] (partner dose 0.2 µM)	64.3%
C[C@@H](N)c1ccc(C(=O)Nc2ccnc3[nH]ccc23)cc1 + CC(=O)O[C@@]12CO[C@@H]1C[C@H](O)[C@@]1(C)C(=O)[C@H](O)C3=C(C)[C@@H](OC(=O)[C@H](O)[C@@H](NC(=O)OC(C)(C)C)c4ccccc4)C[C@@](O)([C@@H](OC(=O)c4ccccc4)[C@H]21)C3(C)C [Docetaxel] (partner dose 0.0001 µM)	56.1%
Cn1sc(=O)n(Cc2ccccc2)c1=O + c1cc(-c2cnn3cc(-c4ccc(OCCN5CCCCC5)cc4)cnc23)ccn1 [Dorsomorphin] (partner dose 0.4 µM)	79.2%
Cn1sc(=O)n(Cc2ccccc2)c1=O + COCC[n+]1c2c(n(Cc3cnccn3)c1C)C(=O)c1ccccc1C2=O [YM155] (partner dose 0.0004 µM)	92.7%
Cn1sc(=O)n(Cc2ccccc2)c1=O + Nc1nc(F)nc2c1ncn2[C@@H]1O[C@H](CO)[C@@H](O)[C@@H]1O [fludarabine] (partner dose 0.2 µM)	116%
CCCCCCCCCCCCCCCCCCOP(=O)([O-])OC1CC[N+](C)(C)CC1 [Perifosine] + CC(=O)O[C@@]12CO[C@@H]1C[C@H](O)[C@@]1(C)C(=O)[C@H](O)C3=C(C)[C@@H](OC(=O)[C@H](O)[C@@H](NC(=O)OC(C)(C)C)c4ccccc4)C[C@@](O)([C@@H](OC(=O)c4ccccc4)[C@H]21)C3(C)C [Docetaxel] (partner dose 0.0001 µM)	54.2%
CCCCCCCCCCCCCCCCCCOP(=O)([O-])OC1CC[N+](C)(C)CC1 [Perifosine] + C=C(c1ccc(C(=O)O)cc1)c1cc2c(cc1C)C(C)(C)CCC2(C)C [Bexarotene] (partner dose 2 µM)	78.3%
Cn1sc(=O)n(Cc2ccccc2)c1=O + CCN(CC)CCCCNc1ncc2cc(-c3cc(OC)cc(OC)c3)c(NC(=O)NC(C)(C)C)nc2n1 [PD173074] (partner dose 0.1 µM)	104%
C[C@@H](N)c1ccc(C(=O)Nc2ccnc3[nH]ccc23)cc1 + C[C@]1(c2nc3c(C(N)=O)cccc3[nH]2)CCCN1 [Veliparib] (partner dose 1.4 µM)	84.5%
CCCCCCCCCCCCCCCCCCOP(=O)([O-])OC1CC[N+](C)(C)CC1 [Perifosine] + CCCCCCCCc1ccc(CCC(N)(CO)CO)cc1 [fingolimod] (partner dose 2 µM)	94.3%
C[C@@H](N)c1ccc(C(=O)Nc2ccnc3[nH]ccc23)cc1 + CN(c1ncccc1CNc1nc(Nc2ccc3c(c2)CC(=O)N3)ncc1C(F)(F)F)S(C)(=O)=O [PF562271] (partner dose 0.08 µM)	54.2%
C[C@@H](N)c1ccc(C(=O)Nc2ccnc3[nH]ccc23)cc1 + COc1cc(Nc2ncc(F)c(Nc3ccc4c(n3)NC(=O)C(C)(C)O4)n2)cc(OC)c1OC [Tamatinib] (partner dose 0.4 µM)	35.9%
C[C@@H](N)c1ccc(C(=O)Nc2ccnc3[nH]ccc23)cc1 + Cc1ccc(NC(=O)c2cccc(N(C)C)c2)cc1NC(=O)c1ccc(O)cc1 [ZM336372] (partner dose 2 µM)	88%
CCCCCCCCCCCCCCCCCCOP(=O)([O-])OC1CC[N+](C)(C)CC1 [Perifosine] + Cc1cn(-c2cc(NC(=O)c3ccc(C)c(Nc4nccc(-c5cccnc5)n4)c3)cc(C(F)(F)F)c2)cn1 [nilotinib] (partner dose 0.2 µM)	75.9%
C[C@@H](N)c1ccc(C(=O)Nc2ccnc3[nH]ccc23)cc1 + Cn1c(=O)n(-c2ccc(C(C)(C)C#N)cc2)c2c3cc(-c4cnc5ccccc5c4)ccc3ncc21 [NVP-BEZ235] (partner dose 0.004 µM)	77.5%
Cn1sc(=O)n(Cc2ccccc2)c1=O + CCCCCCCCc1ccc(CCC(N)(CO)CO)cc1 [fingolimod] (partner dose 2 µM)	94.3%
